PubChem BioAssay AID485364 (National Center for Advancing Translational Sciences (NCATS), 2010)
Hit rate of the full screen: of about 360,000 compounds, about 11,000 (3.1%) were called active. Inconclusive means that the source gave no clear call. Such entries were picked first, then a sample of the others. Calls follow the shape of the dose curve; as a rule, active = well fitted inhibition curve with a large enough effect; inconclusive = small, poorly fitted or top-dose-only effect; inactive = no such curve, though single readings can be large or run the other way. Potencies of inconclusive entries are left out as doubtful fits.

Biological target: Schistosoma mansoni thioredoxin glutathione reductase (TGR) (UniProt Q962Y6)
Assay: qHTS Assay for the Inhibitors of Schistosoma Mansoni Peroxiredoxins; also: nearly all actives have a fitted effect of over 60% in size
Settings: purified TGR, DTNB reduction, TNB absorbance 405 nm; series mostly up to 114 µM
In short: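 TGR 20 nM + NADPH 100 uM (dispensed conc.), cpd preinc 15 min RT; start with NADPH (500 uM addition) then DTNB (15 mM addition). Kinetic TNB absorbance, 405 nm filter. Four-parameter Hill fit across titration.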
Potency is read from the fitted curve at half-maximal effect; tags tell the direction and shape of the fitted curve.

Question: Which Potency does the source give for CC(C)(C)NC(=O)NC(=O)CN1C(=O)NC(C)(c2ccccc2)C1=O (stereo not drawn) here?
Answer: Its Potency is “inactive”.

Question: Which Potency does the source give for O=C(Cc1nc(-c2ccc(Br)s2)cs1)NCCN1CCOCC1 here?
Answer: The Potency was inconclusive [inhibitor, partial curve].

Question: For CCCC(NC(=O)C(C)NC(=O)CO/N=C1\C=C2CCC3C4CCC(C(C)=O)[C@@]4(C)CCC3[C@@]2(C)CC1)C(=O)O (stereo partly drawn), which Potency is on record?
Answer: The Potency was inconclusive [inhibitor, partial curve, poor fit].

Question: COc1ccc(Cc2nc(-c3ccc(Br)o3)no2)cc1OC was tested. Which Potency did it give?
Answer: Its Potency is inconclusive [inhibitor, partial curve].

Question: With N#Cc1c(/N=C/c2ccc(O)cc2O)sc2c1C1CCN2CC1 as the molecule, how does the Potency read?
Answer: Its Potency is “inactive”.

Question: How did the Potency turn out when OC(COC(c1ccc(F)cc1)c1ccc(F)cc1)CN1CCc2ccccc2C1 (stereo not drawn) was run?
Answer: Its Potency is “inactive”.

Question: Which Potency does the source give for CCSC1=NCCN1C(=O)Cc1ccc(-c2ccccc2)cc1 here?
Answer: The Potency was “inactive”.

Question: For O=c1[nH]c(=O)n(-c2cccc3ccccc23)c(O)c1C=NCCCn1ccnc1, which Potency is on record?
Answer: The Potency was inconclusive [inhibitor, full curve, poor fit].

Question: With COc1cc(/C=C2/C(=O)NN(c3cccc(Cl)c3)C2=O)cc(OC)c1O as the molecule, how does the Potency read?
Answer: The Potency was inconclusive [inhibitor, full curve].

Question: O=C(Nc1ccc(NC(=O)C23CC4CC(CC(C4)C2)C3)cn1)c1ccco1 was tested. Which Potency did it give?
Answer: The Potency was “inactive”.

Question: For COc1ccc2cc(-c3cccnc3)ncc2c1, which Potency is on record?
Answer: The Potency was inconclusive [inhibitor, full curve].

Question: For O=C1CCCC(=O)C1C1c2ccccc2CCN1C(=O)CCl (stereo not drawn), which Potency is on record?
Answer: Its Potency is active: 44.7 µM.

Question: How did the Potency turn out when COc1ccc(NC(=O)NNC(=O)CCc2ccc(O)c(O)c2)cc1OC was run?
Answer: Its Potency is inconclusive [inhibitor, full curve].

Question: How did the Potency turn out when CSc1ccc(CNC(=O)C2Cc3cc(S(=O)(=O)N4CCCCC4)ccc3N2C(C)=O)cc1 (stereo not drawn) was run?
Answer: The Potency was “inactive”.

Question: How did the Potency turn out when O=C(CN(Cc1ccc(Br)cc1)S(=O)(=O)c1ccccc1)NCc1cccnc1 was run?
Answer: Its Potency is “inactive”.

Question: Which Potency does the source give for CCN(CC)S(=O)(=O)c1ccc2c(c1)N(CC(=O)Nc1ccc(Cl)cc1)C(=O)C1CCCN21 (stereo not drawn) here?
Answer: The Potency was inconclusive [inhibitor, partial curve].

Question: With O=C(O)c1ccc(/C=C2\SC(=S)N(Nc3ccccc3)C2=O)cc1 as the molecule, how does the Potency read?
Answer: Its Potency is active: 3.16 µM.

Question: With CCN(CC)S(=O)(=O)c1ccc(N(C)C)c(NC(=O)C2CCCC2)c1 as the molecule, how does the Potency read?
Answer: The Potency was “inactive”.

Question: How did the Potency turn out when COc1ccc(CNCCc2ccc([N+](=O)[O-])cc2)c(OC)c1OC was run?
Answer: Its Potency is inconclusive [inhibitor, single point].

Question: With COc1ccc(-c2sc3ccc(OC)cc3c2C#CCCO)cc1 as the molecule, how does the Potency read?
Answer: Its Potency is inconclusive [inhibitor, partial curve].

Question: For COc1ccccc1CNC(=O)C(=O)NCC(c1ccco1)S(=O)(=O)c1ccc(F)cc1 (stereo not drawn), which Potency is on record?
Answer: Its Potency is active: 10 µM.

Question: Which Potency does the source give for CC(=O)/C(=N/Nc1ccc([N+](=O)[O-])cc1)N1CCCc2ccccc21 here?
Answer: The Potency was inconclusive [inhibitor, partial curve].

Question: O=C(CC1C(=O)NCCN1Cc1ccc(-c2ccccc2)cc1)NCc1ccncc1 (stereo not drawn) was tested. Which Potency did it give?
Answer: Its Potency is inconclusive [inhibitor, partial curve].

Question: How did the Potency turn out when Cn1c(CCN2CCCC2)nc2cc(NS(=O)(=O)c3ccccc3)ccc21 was run?
Answer: Its Potency is inconclusive [inhibitor, partial curve].

Question: Cc1cc(-c2cccs2)n[nH]1 was tested. Which Potency did it give?
Answer: The Potency was “inactive”.

Question: COc1cccc(NC(=O)CN(C)C(=O)CCCc2c[nH]c3ccccc23)c1 was tested. Which Potency did it give?
Answer: Its Potency is inconclusive [inhibitor, partial curve].

Question: Which Potency does the source give for c1ccc(CSc2snnc2-c2ccccc2)cc1 here?
Answer: Its Potency is inconclusive [inhibitor, single point].

Question: How did the Potency turn out when CCN1C(=O)[C@@H]2[C@@H](c3ccc(-c4ccc(C(C)=O)cc4)cc3)N3CCCC[C@@]3(C(=O)OC)[C@@H]2C1=O was run?
Answer: The Potency was inconclusive [inhibitor, full curve].

Question: CNC(=O)C(=O)Nc1cc2c3c(c1)C(C)C(=O)N3CCC2 (stereo not drawn) was tested. Which Potency did it give?
Answer: Its Potency is “inactive”.

Question: For Nc1ccc(O)c2c1C(=O)c1ccccc1C2=O, which Potency is on record?
Answer: The Potency was “inactive”.

Question: For O=C(CC1SC(=O)NC1=O)Nc1ccc(Cl)cc1 (stereo not drawn), which Potency is on record?
Answer: Its Potency is inconclusive [inhibitor, single point].

Question: For O=C(N/N=C/c1oc(O)c2ccccc12)c1ccccc1, which Potency is on record?
Answer: The Potency was inconclusive [inhibitor, single point].

Question: For O=C(COc1ccc(C2SCCS2)cc1)NNC(=O)C(Cl)Cl, which Potency is on record?
Answer: The Potency was inconclusive [inhibitor, partial curve].

Question: For Cc1cc(C)nc(-n2ncc3c2CC(c2ccccc2C)CC3=O)n1 (stereo not drawn), which Potency is on record?
Answer: The Potency was “inactive”.

Question: With Cc1nn(Cc2ccc(C(=O)NC3CCCCC3)o2)c(C)c1Br as the molecule, how does the Potency read?
Answer: The Potency was inconclusive [inhibitor, partial curve].

Question: With COc1cc(C(C)=O)ccc1OCC(O)CN1CCN(c2cc(C)cc(C)c2)CC1 (stereo not drawn) as the molecule, how does the Potency read?
Answer: Its Potency is “inactive”.

Question: Which Potency does the source give for CC(=O)Nc1ccc(NC(=O)C(C)OC(=O)c2cccs2)cc1 (stereo not drawn) here?
Answer: The Potency was “inactive”.

Question: For COc1cc(C2Nc3ccc4ncccc4c3C3=C2C(=O)CCC3)ccc1O (stereo not drawn), which Potency is on record?
Answer: Its Potency is inconclusive [inhibitor, single point].

Question: COC(=O)C(CC(=O)c1ccc(Br)cc1)n1nc(C)cc1C (stereo not drawn) was tested. Which Potency did it give?
Answer: Its Potency is active: 3.55 µM.

Question: CC(=O)O[C@H]1CC(C)(C)C(=C=C/C(C)=C/C=C/C(C)=C/C=C/C=C(C)/C=C/C=C(\C)C(=O)C[C@@]23O[C@]2(C)C[C@@H](O)CC3(C)C)[C@](C)(O)C1 was tested. Which Potency did it give?
Answer: The Potency was active: 3.16 µM.

Question: Which Potency does the source give for CCCS(=O)(=O)c1c(S(=O)(=O)CCC)c2c(N)cccn2c1C(=O)c1ccc(Br)cc1 here?
Answer: Its Potency is inconclusive [inhibitor, partial curve].

Question: For O=S(=O)(NC1=NCCC1)c1cccc(NC(=S)NCCc2ccccc2)c1, which Potency is on record?
Answer: Its Potency is inconclusive [inhibitor, partial curve, poor fit].

Question: How did the Potency turn out when S=c1[nH]cc(-c2ccccc2)n1-c1ccccc1Cl was run?
Answer: The Potency was “inactive”.

Question: How did the Potency turn out when Cn1cccc1Cc1nnc(SCC(N)=O)n1-c1ccc(F)cc1 was run?
Answer: Its Potency is inconclusive [inhibitor, partial curve].

Question: With CCNc1ncnc2c1cnn2C as the molecule, how does the Potency read?
Answer: The Potency was “inactive”.

Question: For COc1ccc(N2C(=O)CC(=O)NC2=O)cc1, which Potency is on record?
Answer: Its Potency is inconclusive [inhibitor, full curve, poor fit].

Question: With CC1CCCCN1Cc1nc2c(c(=O)n(C)c(=O)n2C)n1Cc1ccc(Br)cc1 (stereo not drawn) as the molecule, how does the Potency read?
Answer: The Potency was inconclusive [inhibitor, single point].

Question: Cc1[nH]nc2c1C(c1ccco1)C(C#N)=C(N)O2 (stereo not drawn) was tested. Which Potency did it give?
Answer: The Potency was “inactive”.

Question: How did the Potency turn out when Fc1ccc(C2=CC(c3cccs3)n3nnnc3N2)cc1 (stereo not drawn) was run?
Answer: Its Potency is “inactive”.

Question: For Cc1nn(C(C)C(=O)NCCCN2CCCCCC2)c(=O)c2cc3sccc3n12 (stereo not drawn), which Potency is on record?
Answer: The Potency was inconclusive [inhibitor, partial curve, poor fit].

Question: O=C1c2ccccc2C(=O)N1c1nc2nccc(-c3ccccc3)n2n1 was tested. Which Potency did it give?
Answer: The Potency was “inactive”.

Question: Cc1ccc(NC(=O)CNC(=O)c2ccco2)nc1 was tested. Which Potency did it give?
Answer: Its Potency is “inactive”.

Question: Which Potency does the source give for O=C(O)CC(c1cccc(Cl)c1)n1cccc1 (stereo not drawn) here?
Answer: The Potency was inconclusive [inhibitor, single point].

Question: For Cc1cc(C)c(C(=O)/C=C/C=C/c2ccccc2)c(=O)[nH]1, which Potency is on record?
Answer: Its Potency is inconclusive [inhibitor, partial curve].

Question: With COc1ccc([N+](=O)[O-])cc1NC(=O)c1ccco1 as the molecule, how does the Potency read?
Answer: Its Potency is “inactive”.

Question: CCOC(=O)c1ccc(N2C(=O)CC(SCC(=O)Nc3ccc(S(N)(=O)=O)cc3)C2=O)cc1 (stereo not drawn) was tested. Which Potency did it give?
Answer: The Potency was inconclusive [inhibitor, partial curve].

Question: With O=C(NNC1=NS(=O)(=O)c2ccccc21)c1ccc([N+](=O)[O-])cc1 as the molecule, how does the Potency read?
Answer: The Potency was “inactive”.

Question: Which Potency does the source give for O=C1CC(c2ccco2)CC(O)=C1C=NCCO (stereo not drawn) here?
Answer: The Potency was inconclusive [inhibitor, partial curve].

Question: With COC(=O)C1=C(N)OC2=C(C(=O)CCC2)C1c1ccccc1OC (stereo not drawn) as the molecule, how does the Potency read?
Answer: The Potency was inconclusive [inhibitor, partial curve].

Question: For CCOc1ccc2oc(=O)cc(CN3CCN(c4cc(C)ccc4C)CC3)c2c1, which Potency is on record?
Answer: The Potency was “inactive”.

Question: Cc1nnc(NC(=O)CC(CN(C)S(=O)(=O)c2ccccc2)c2ccccc2)s1 (stereo not drawn) was tested. Which Potency did it give?
Answer: Its Potency is inconclusive [inhibitor, full curve].

Question: How did the Potency turn out when c1ccc(Oc2nc(NCc3ccco3)nc(NCc3ccco3)n2)cc1 was run?
Answer: The Potency was inconclusive [inhibitor, partial curve].

Question: With Cc1ccc(OCC(=O)Nc2ccon2)c([N+](=O)[O-])c1 as the molecule, how does the Potency read?
Answer: The Potency was inconclusive [inhibitor, full curve, poor fit].

Question: CC(=O)N1CCc2cc(C(=O)CN3CCN(C(=O)c4ccco4)CC3)ccc21 was tested. Which Potency did it give?
Answer: The Potency was active: 14.1 µM.

Question: For O=C(CCl)NNc1cccc(Cl)n1, which Potency is on record?
Answer: The Potency was inconclusive [inhibitor, partial curve].

Question: CN(Cc1ccco1)C(=O)c1ccc2c(c1)N(Cc1ccccc1F)C(=O)c1ccccc1S2 was tested. Which Potency did it give?
Answer: The Potency was inconclusive [inhibitor, partial curve].

Question: Which Potency does the source give for CCCCn1c(SCC(=O)NCc2ccco2)nnc1-c1ccoc1C here?
Answer: The Potency was active: 28.2 µM.

Question: With CN(C)CCN(C(=O)CCS(=O)(=O)c1ccccc1)c1nc2cc3c(cc2s1)OCO3 as the molecule, how does the Potency read?
Answer: The Potency was inconclusive [inhibitor, partial curve, poor fit].

Question: Cc1c(NC(=S)NC(=O)c2sc3ccccc3c2Cl)cccc1C(=O)O was tested. Which Potency did it give?
Answer: The Potency was active: 3.16 µM.

Question: How did the Potency turn out when O=C(C(Cl)c1ccccc1)N1CCOCC1 (stereo not drawn) was run?
Answer: Its Potency is inconclusive [inhibitor, partial curve].

Question: For CCCCN(C)C(=O)c1ccc(CS(=O)(=O)c2ccccc2C)o1, which Potency is on record?
Answer: The Potency was active: 25.1 µM.

Question: For COc1ccc(/C=C/C(=O)c2ccc([N+](=O)[O-])o2)cc1, which Potency is on record?
Answer: The Potency was inconclusive [inhibitor, partial curve, poor fit].

Question: Cc1cc(C(=O)COC(=O)Cn2cnc3c2c(=O)n(C)c(=O)n3C)c(C)n1C was tested. Which Potency did it give?
Answer: Its Potency is inconclusive [inhibitor, full curve, poor fit].
